Data published in the supplement of paper PMC7335073.
The full ranking holds about 4,100 sequences; the median of “relative CpG methylation activity (normalised to average over all NNNCGNNN flanks)” is about 0.94, and the highest 2% start at about 1.9. The list shows a part of the results.

Molecular target: DNMT3B catalytic domain (mouse) (UniProt O88509)
Assay: relative CpG methylation activity (normalised to average over all NNNCGNNN flanks) (relative (1 = mean)); higher = more methylation of the central CpG
Settings: system: in vitro, murine catalytic domain; CpG state: hemimethylated substrate pool; residues: 558-859
Experimental: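 Deep enzymology: a pool of dsDNA substrates with a central CpG flanked by 10 random nucleotides on each side was methylated by the murine DNMT3A or DNMT3B catalytic domain (0.8 mM SAM, 37 °C, 60 min). Methylation was then read out by hairpin ligation, bisulfite conversion and NGS. Values are the average methylation of each NNNCGNNN context (±3 flanks; the outer flanks are random and averaged over), normalised to the overall mean, so 1 = average activity.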

UniProt O88509, sequence (O88509 558-859): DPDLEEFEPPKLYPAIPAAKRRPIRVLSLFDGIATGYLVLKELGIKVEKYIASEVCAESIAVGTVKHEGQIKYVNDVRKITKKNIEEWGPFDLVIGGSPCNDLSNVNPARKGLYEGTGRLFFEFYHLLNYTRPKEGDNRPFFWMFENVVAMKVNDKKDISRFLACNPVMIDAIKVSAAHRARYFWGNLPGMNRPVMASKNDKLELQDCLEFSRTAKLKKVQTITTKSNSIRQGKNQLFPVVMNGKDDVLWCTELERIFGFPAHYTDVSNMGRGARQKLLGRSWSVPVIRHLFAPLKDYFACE

Sequence	relative CpG methylation activity
TTACGGAT	1.5
AGGCGAAT	0.593
GCACGGTG	1.37
TTACGTGC	1.26
ATGCGTAA	0.779
AAGCGACC	0.837
CGTCGGAC	0.869
CGACGTCT	0.91
TCCCGTAT	0.542
GCTCGTGG	0.0817
GCACGGAA	1.06
CGTCGGGG	1.04
CGGCGGTC	0.675
TAACGGGG	1.53
TTGCGACT	1.25
AACCGGCT	1.12
ACGCGTAG	0.632
GGTCGCCA	0.481
TGGCGATG	0.694
CTCCGTAG	0.439
GGGCGCGC	0.249
TTGCGTAT	0.938
CACCGGGT	1.06
AGCCGTTA	0.122
TAACGGGT	1.52

Sequence	relative CpG methylation activity
CCCCGTTA	0.69
CTCCGCCC	1.37
GGTCGTTG	0.242
TGCCGCAG	0.216
AGGCGACT	0.402
AACCGTAT	0.17
AAGCGGCC	1.08
TCACGCGC	1.15
CTACGACC	1.82
TTGCGCTG	0.959
GACCGTTC	0.315
TCGCGTAA	0.737
CGGCGCTC	0.487
GATCGGAG	0.656
TTACGGCC	1.97
ATTCGCTA	1.04
GGACGTTC	0.877
TTCCGCTG	0.891
TGCCGGGT	0.798
GCTCGGGC	1.65
TCTCGGTC	1.69
GCTCGAAA	1.16
GCACGCCA	1.24
CAGCGAAG	0.716
TACCGAGA	1.42

Sequence	relative CpG methylation activity
AGTCGATG	0.995
TTTCGAAC	1.8
GCGCGGCG	1.15
ACTCGCGG	0.457
CAGCGTAA	0.639
AAACGTCG	1.07
AGTCGCAA	0.358
AATCGCGT	0.531
AATCGGTA	1.06
GTTCGTGT	0.187
GAGCGCTT	0.818
ACACGATA	1.75
TTTCGTCA	0.929
CTACGGCA	2.23
ATGCGTAG	0.627
CGGCGAGA	1
CCCCGGCT	2.05
CGCCGACC	0.849
GCACGAAT	1.31
CCACGCGA	0.831
GGTCGTCG	0.375
TAACGTTT	0.864
GCGCGCAC	0.678
GTTCGTGC	0.635
AATCGCAT	0.484

Sequence	relative CpG methylation activity
TTACGCAC	1.58
TAACGTTC	0.899
GCTCGCGT	0.5
TGCCGTTA	0.189
GTCCGGTA	1.27
TATCGGCT	1.8
TCTCGGAT	0.871
TGCCGATT	0.867
ATTCGAAT	1.28
TTCCGTCT	1.22
AGACGGCG	1.94
AGGCGTGG	0.149
ACACGTCA	1.08
GGACGTCT	0.49
AGTCGGAG	0.701
GTACGCTT	1.4
ATACGGGG	1.61
CGGCGTTG	0.273
AGACGGTG	1.51
TTCCGAGC	1.9
CACCGATC	1.71
GAACGCGC	1.42
TTACGCCC	1.66
TGCCGCGT	0.176
GCCCGTAA	0.412

Sequence	relative CpG methylation activity
CAGCGGTG	0.603
GGGCGAGT	1.12
CACCGTCT	0.628
CTACGGAC	1.64
GAGCGTTA	0.536
ACCCGAGC	1.75
CGTCGTCG	0.566
AGGCGAGG	0.885
TTGCGTCG	1.01
TGACGATT	1.54
CTCCGCGC	1.11
TCTCGTCA	0.921
AAACGCAC	1.13
GAGCGGAA	0.488
CAACGGCC	1.93
TAACGCAG	0.89
AAACGCGC	1.46
AGTCGTAC	0.709
GATCGGAT	0.566
GCCCGAAG	1.05
CTGCGGTA	1.52
GTGCGCCT	1.08
GGGCGTAC	0.51
AGGCGATT	1.28
AGACGACA	1.03

Sequence	relative CpG methylation activity
TAGCGAAG	0.804
CCCCGGGC	1.61
TGACGCAA	0.494
CACCGGCG	1.46
GTGCGAGG	1.37
CGACGTAG	0.608
ATCCGGAT	0.823
ATCCGGTA	1.23
TCGCGAGT	0.929
AGACGCAG	0.692
GCGCGTAG	0.603
TGACGTAC	0.995
AGGCGCGC	0.51
CGGCGCAC	0.407
TGCCGAGG	0.761
GCACGCTG	0.98
CTACGCTC	1.91
GTCCGTTG	0.423
ACCCGGCA	1.58
ATACGTTC	1.34
ATGCGCAT	0.608
AGTCGCGC	0.846
GGGCGGTC	1.1
TATCGGGC	1.71
CGCCGGTA	0.741

Sequence	relative CpG methylation activity
ACCCGTAT	0.451
GGGCGGTA	0.67
AGGCGGAA	0.276
TGTCGTCC	0.886
TGTCGTCG	0.432
TTCCGAGT	1.83
CGCCGACA	0.773
ACACGGTG	1.2
CCACGGTC	1.76
ATGCGGTT	1.06
ACACGGCA	1.89
CTCCGCTC	1.27
CTCCGGTA	1.72
GCTCGAGG	1.01
GTACGCAG	0.794
CGGCGGAG	0.317
AAACGCAT	0.997
ATGCGGCA	1.52
GATCGCTA	0.629
CAGCGCAC	0.598
GGACGAGG	1.41
GTCCGTTT	0.664
CCGCGGGG	0.959
TTCCGTTT	0.673
ATGCGCAG	0.568

Sequence	relative CpG methylation activity
CTGCGAGG	1.25
GTCCGCCA	1.02
AAACGTGA	0.629
GCTCGCCA	0.72
GGACGATT	1.32
TGACGACC	0.905
CGACGAAC	1.17
CGCCGGCC	1.22
TCACGAAA	1.39
GTCCGCCT	1.2
GAACGTTC	1.07
GAGCGTAC	0.826
AGCCGAAG	0.633
AGTCGTCG	0.57
TAACGGTT	1.38
ATGCGCAA	0.523
CAGCGGCT	1.17
TCCCGGAC	1.24
CGGCGTTA	0.375
TAACGTAC	1.33
CGGCGTGA	0.188
CGTCGGCA	1.59
CGTCGCAA	0.344
CACCGATA	1.48
AACCGGGC	0.932

Sequence	relative CpG methylation activity
CCTCGATT	1.35
CAGCGCAA	0.332
GCCCGTTA	0.489
CTACGGGT	1.94
GCTCGGTC	1.45
GCCCGAGC	1.61
ACGCGTAC	0.922
CATCGTCT	0.994
GACCGTCT	0.495
AAGCGTAT	0.561
AAGCGCTA	0.473
TTCCGCAT	0.754
CCTCGCCG	0.844
GTGCGATG	1.11
AACCGTAA	0.226
ACCCGCCA	0.845
CGCCGGAA	0.51
TGACGCGT	0.737
TGGCGGAA	0.496
CCCCGAGC	1.93
CTCCGGGC	2.05
GGGCGCCA	0.492
GAACGCGG	0.853
ACTCGACA	1.23
CGGCGTAG	0.466

Sequence	relative CpG methylation activity
CTACGATC	1.92
GCCCGTAC	1.01
ACCCGCAG	0.314
CACCGTGA	0.304
GCTCGGGG	1.29
CGGCGTAC	0.618
TTCCGGAT	1.22
GCACGTTG	0.737
TCACGCTC	1.4
GATCGGCA	1.83
TGTCGTCT	0.452
TTACGATG	1.53
TAACGAGA	1.72
AGCCGTTC	0.343
GGTCGGAC	0.72
CTTCGTAA	0.672
ACTCGATG	1.23
CTGCGATG	1.15
GCTCGCAA	0.333
TAACGGAT	1.01
AGACGGGC	1.32
TAACGCAT	0.869
CGACGAGG	1.21
TCTCGTAG	0.507
GATCGGAA	0.661

Sequence	relative CpG methylation activity
CTACGAGG	1.68
AAACGCGG	1.24
GTCCGCTT	0.914
GTACGGGA	1.73
GGACGTAG	0.511
ACACGACC	1.59
GACCGTAG	0.253
CAGCGTCC	0.859
GCCCGCCT	0.861
CGGCGTGG	0.219
TTTCGACC	1.74
GTACGCGG	1.53
TTTCGCAA	0.7
ATGCGCGT	0.658
TCCCGTCT	1.14
ATGCGTTA	0.562
ATACGGAG	1.21
AATCGAGA	1.7
CCGCGCTC	0.988
ATGCGAAC	1.3
TGGCGTAC	0.655
CGACGAGT	1.4
GCACGATC	1.71
CCGCGAAG	0.749
CGACGCCA	1.07

Sequence	relative CpG methylation activity
TTCCGGGT	1.7
GAACGCCG	1.23
TGACGGGG	1.08
CATCGGTA	1.26
AAACGGAT	0.919
TTCCGGTT	2.2
AAGCGCCC	0.778
GTACGAAA	1.8
TATCGTTA	0.337
TCTCGTGA	0.332
ACGCGCGA	0.411
AGACGGGT	0.883
TTTCGACG	1.48
CGACGGCT	1.25
GCTCGAGT	1.34
AGGCGTTT	0.321
GGACGTGT	0.376
CGACGTAA	0.604
ACTCGGTC	1.46
GGTCGGTA	0.868
GTCCGTGA	0.424
TATCGGAA	0.708
GCGCGGAG	0.421
GCGCGTCT	0.489
CGTCGCGA	0.356

Sequence	relative CpG methylation activity
CTACGTGC	1.27
GGCCGTCT	0.189
TCACGCCC	1.41
TCTCGCGC	0.78
TTCCGAAA	1.64
TCTCGCGT	0.567
GTCCGTGG	0.26
ATCCGACT	1.4
CGTCGTGG	0.229
CCCCGGTG	1.19
TCTCGTAC	0.984
CTCCGAAT	1.65
CCGCGTTC	0.83
GCCCGCGA	0.343
ATGCGACG	1.02
AGCCGTAA	0.107
ACGCGGCC	1.21
GTCCGGCC	1.77
GTGCGACT	0.786
TGTCGATA	1.31
TCGCGCCC	1.02
TTCCGACT	1.52
GGACGTCC	0.987
TGTCGATC	1.75
GAACGACT	1.42

Sequence	relative CpG methylation activity
TGACGGTC	1.79
GGACGTCG	0.538
CGTCGAGA	1.6
TATCGGTA	1.31
TGACGAAG	0.818
GCACGGGA	1.23
GATCGGGG	1.31
TAGCGTAT	0.712
CGTCGGGC	1.26
GGCCGCGA	0.185
CGGCGGCG	1.12
GGGCGCGA	0.153
ACTCGCAA	0.415
ATCCGCGC	0.826
GGGCGTTT	0.126
CGGCGTCC	0.628
AGTCGCCC	0.778
AGTCGGAT	0.542
CGGCGCCG	0.455
